Screen size: about 420,000 compounds; about 64,000 (15%) were called active. Inconclusive results, whose numbers are uncertain, are shown with a selection of clear calls. Calls come from the whole dose curve; as a rule, active = well fitted inhibition curve with a large enough effect; inconclusive = small, poorly fitted or top-dose-only effect; inactive = flat fitted curve, though single readings scatter. Potencies of inconclusive entries are left out as doubtful fits.
Assay: qHTS for Inhibitors of human tyrosyl-DNA phosphodiesterase 1 (TDP1): qHTS in cells in absence of CPT; note: nearly all actives have a fitted effect of over 55% in size
Conditions: DT40 Tdp1-/- hTDP1 cells, no CPT, ATP luminescence, 48 h; activity change, negative = growth inhibition: at 46.2 µM (top of the series) unless noted
Method in brief: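 Compound effects on proliferation are scored in DT40 Tdp1-/-;hTDP1 cells in the absence of CPT. ATP levels (CellTiter-Glo luminescence) are recorded after a ≥48 hr, 37 °C incubation.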
For COc1ccc(S(=O)(=O)N[C@@H](Cc2ccccc2)C(=O)N2CC[C@@]3(O)CCCC[C@H]3C2)cc1, the Potency was inconclusive [inhibitor, partial curve, poor fit]. With O=C(Cc1cccs1)N1CCN(c2ccc([N+](=O)[O-])cc2)CC1 the Potency was inconclusive [inhibitor, partial curve]. With Cn1nc(-c2ccccc2)c(-c2nc(-c3ccc(Cl)cc3)no2)c1Cl the Potency was inconclusive [inhibitor, single point]. For CCn1c(SCC(=O)Nc2ccc(OC)c(OC)c2)nnc1-c1c[nH]c2ccccc12, the Potency was inconclusive [inhibitor, single point]. In the case of CC(OC(=O)c1ccc(-n2cnnn2)cc1)C(=O)NCc1ccccc1 (stereo not drawn), the Potency is reported as “inactive”. With Cc1ccc(S(=O)(=O)c2nnn3c2nc(N2CCN(c4ccc(F)cc4)CC2)c2cc(Cl)ccc23)cc1C the Potency was “inactive”. In the case of CCOc1ccccc1CNC(=O)c1ccc(Sc2ccc(Cl)cc2)c(NC(C)=O)c1, the Potency is reported as inconclusive [inhibitor, single point]. For Cc1ccc(CNC(=O)C(=O)NCC2OCCN2S(=O)(=O)c2ccc(C)cc2)cc1 (stereo not drawn), the Potency was inconclusive [inhibitor, single point]. For Cc1ccc(N2CCN(C(=O)Cc3c(C(=O)O)c(C)cn3C)CC2)c(C)c1, the Potency was inconclusive [inhibitor, single point]. With COc1ccccc1NC(=S)N1CCC(NC(=O)NC23CC4CC(CC(C4)C2)C3)CC1 the Potency was inconclusive [inhibitor, single point]. In the case of COc1cc2c(cc1OC)C(c1ccc(C)cc1)NC(=O)C2 (stereo not drawn), the Potency is reported as “inactive”. In the case of COCCN(Cc1nc2ccccc2c(=O)[nH]1)C(=O)COc1c(C)cc(Cl)cc1C, the Potency is reported as inconclusive [inhibitor, single point]. With O=C(CSc1ccccn1)Nc1ccc(NC(=O)CSc2ccccn2)cc1 the Potency was “inactive”. With Cc1ccc(S(=O)(=O)N2CCN(c3cc(-c4cccs4)nc4ccccc34)CC2)cc1 the Potency was “inactive”. For CO/N=C(\C(=O)N[C@@H]1C(=O)N2C(C(=O)O)=C(COC(C)=O)CS[C@H]12)c1csc(N)n1 (stereo in doubt), the activity change, negative = growth inhibition was inconclusive: -35.4% [inhibitor]. In the case of Cc1cccc(NC(=O)N2CCc3c(sc4c3CCCC4)C2c2ccc(F)cc2)c1 (stereo not drawn), the Potency is reported as active: 16.4 µM. In the case of C=CCn1c(COc2ccccc2)nnc1SCC(=O)C(C)(C)C, the Potency is reported as inconclusive [inhibitor, partial curve, poor fit]. In the case of O=C(c1cc(S(=O)(=O)N2CCOCC2)ccc1F)N(CCc1ccccc1)Cc1ccccc1, the Potency is reported as active: 23.1 µM.

Reference: PubChem BioAssay AID686978 (National Center for Advancing Translational Sciences (NCATS), 2013)
% is set by controls: 0 for no effect and ±100 for the full control effect; potency is the fitted concentration of half-maximal effect; tags give direction and shape of the fitted curve.
